Test results as given in the supplement of paper PMC12217912.
The list shows a part of the results. Sequences were assembled here from the parent chain. Inactive controls read about 0.05.

B1: TEV protease; numbered along this chain (parent)
chain: MGESLFKGPRDYNPISSSICHLTNESDGHTTSLYGIGFGPFIITNKHLFRRNNGTLVVQSLHGVFKVKDTTTLQQHLVDGRDMIIIRMPKDFPPFPQKLKFREPQREERICLVTTNFQTKSMSSMVSDTSCTFPSGDGIFWKHWIQTKDGQCGSPLVSTRDGFIVGIHSASNFTNTNNYFTSVPKNFMELLTNQEAQQWVSGWRLNADSVLWGGHKVFMVKPEEPFQPVKEATQL

Variants of: B1
Assay: raw area under fraction-flipped curve 0-4 h after induction (AUC4h, not background-subtracted), DNA-recorder readout of cleavage of the substrate (dimensionless); higher = more cleavage of the substrate by the protease variant
Conditions: temperature: 34 °C; time window: 0-4 h after rhamnose induction
Description: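 In vivo DNA recorder in E. coli TOP10(DE3) ΔrhaA at 34 °C. Each TEVp single-site mutant (parent TEVp 0) is paired with a single-site variant of the 7-mer TEVs (canonical ENLYFQ|S). The substrate sits between flexible linkers in a Bxb1-sfGFP-TEVs-SsrA fusion, so cleavage stabilises Bxb1 and speeds flipping of a recombination array, read by NGS. The value is the raw area under the fraction-flipped curve over 0-4 h after rhamnose induction (AUC4h), with ≥20 reads per time point. It is not background-subtracted; inactive controls average about 0.047.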
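Also: Bxb1 expression induced with 0.2% (w/v) L-rhamnose at OD600 near 0.5, cultures sampled hourly, flipped fraction per protease–substrate barcode pair counted by paired-end Illumina sequencing.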

What does the source list for MGESLFKGPRDYNPISSSICHLTNESDGHTTSLYGIGFGPFIITNKHLFRRNNGTLVVQSLHGVFKVKDTTTLQQHLVDGRDMIIIRMPKDFPPFPQKLKFREPQREERICLVTTNFQTKSMSSMVSDTSCTFPSGDGYFWKHWIQTKDGQCGSPLVSTRDGFIVGIHSASNFTNTNNYFTSVPKNFMELLTNQEAQQWVSGWRLNADSVLWGGHKVFMVKPEEPFQPVKEATQL [I139Y]?
area with substrate ENLYFQA: 0.0749; area with substrate ENLYFQD: 0.0643; area with substrate ENLYFQG: 0.0939; area with substrate ENLYFQI: 0.038; area with substrate ENLYFQL: 0.0705; area with substrate ENLYFQN: 0.075; area with substrate ENLYFQP: 0.0608; area with substrate ENLYFQR: 0.0541; area with substrate ENLYFQS: 0.113; area with substrate ENLYFQV: 0.0321; area with substrate ENLYFQW: 0.0534

Which “area with substrate ENLYFQA” value does the source give for MGESLFKGPRDYNPISSSICHLTNESDGHTTSLYGIGFGPFIITNKHLFRRNNGTLVVQSLHGVFKVKDTTTLQQHLVDGRDMIIIRMPKDFPPFPQKLKFREPQREERICLVTTNFQTKSMSSMVSDTSCTFPSGDGIFWKHWIQTKDGQCGSPLVSTRDGFIVGIHSASNFTNTNNYFTSVPKNFMELLTNQEAQQWVSGWRLNADSVLWGGHKVFMVDPEEPFQPVKEATQL [K221D] here?
Its value is 0.0744.

What about the “area with substrate ENLYFQD” value of the same variant?
The value was 0.0594.

And the “area with substrate ENLYFQF” value?
Its value is 0.048.

And the “area with substrate ENLYFQG” value?
The value was 0.0883.

And the “area with substrate ENLYFQI” value?
The value was 0.0644.

And the “area with substrate ENLYFQK” value?
Its value is 0.0586.

And the “area with substrate ENLYFQL” value?
The value was 0.0632.

And the “area with substrate ENLYFQN” value?
The value was 0.0834.

What about the “area with substrate ENLYFQP” value of the same variant?
Its value is 0.0693.

What about the “area with substrate ENLYFQR” value of the same variant?
The value was 0.0594.

And the “area with substrate ENLYFQS” value?
Its value is 0.104.

And the “area with substrate ENLYFQT” value?
Its value is 0.0624.

What about the “area with substrate ENLYFQV” value of the same variant?
The value was 0.0511.

And the “area with substrate ENLYFQW” value?
Its value is 0.0512.

And the “area with substrate ENLYFQY” value?
Its value is 0.0628.

Which “area with substrate ENLYFQA” value does the source give for MGESLFKGPRDYNPISSSICHLTNESDGHTTSLYGIGFGPFIITNKHLFRRNNGTLVVQSLHGVFKVKDTTTLQQHLVDGRDMIIIRMPKDFPPFPQKLKFRWPQREERICLVTTNFQTKSMSSMVSDTSCTFPSGDGIFWKHWIQTKDGQCGSPLVSTRDGFIVGIHSASNFTNTNNYFTSVPKNFMELLTNQEAQQWVSGWRLNADSVLWGGHKVFMVKPEEPFQPVKEATQL [E103W] here?
Its value is 0.0844.

What about the “area with substrate ENLYFQC” value of the same variant?
The value was 0.0837.

What about the “area with substrate ENLYFQD” value of the same variant?
The value was 0.0585.

And the “area with substrate ENLYFQG” value?
Its value is 0.0812.

What about the “area with substrate ENLYFQH” value of the same variant?
The value was 0.0751.

What about the “area with substrate ENLYFQI” value of the same variant?
The value was 0.0503.

What about the “area with substrate ENLYFQK” value of the same variant?
Its value is 0.0624.

What about the “area with substrate ENLYFQL” value of the same variant?
The value was 0.06.

And the “area with substrate ENLYFQM” value?
The value was 0.0732.

And the “area with substrate ENLYFQN” value?
Its value is 0.0621.

And the “area with substrate ENLYFQP” value?
Its value is 0.0572.

What about the “area with substrate ENLYFQQ” value of the same variant?
The value was 0.024.

What about the “area with substrate ENLYFQR” value of the same variant?
Its value is 0.0617.

What about the “area with substrate ENLYFQS” value of the same variant?
Its value is 0.0785.

What about the “area with substrate ENLYFQT” value of the same variant?
The value was 0.0429.

What about the “area with substrate ENLYFQV” value of the same variant?
The value was 0.0577.

What about the “area with substrate ENLYFQW” value of the same variant?
Its value is 0.0612.

What about the “area with substrate ENLYFQY” value of the same variant?
Its value is 0.0592.

With MGESLFKGWRDYNPISSSICHLTNESDGHTTSLYGIGFGPFIITNKHLFRRNNGTLVVQSLHGVFKVKDTTTLQQHLVDGRDMIIIRMPKDFPPFPQKLKFREPQREERICLVTTNFQTKSMSSMVSDTSCTFPSGDGIFWKHWIQTKDGQCGSPLVSTRDGFIVGIHSASNFTNTNNYFTSVPKNFMELLTNQEAQQWVSGWRLNADSVLWGGHKVFMVKPEEPFQPVKEATQL [P9W] as the variant, how does the “area with substrate ENLYFQA” value read?
The value was 0.112.

What about the “area with substrate ENLYFQC” value of the same variant?
Its value is 0.137.

What about the “area with substrate ENLYFQD” value of the same variant?
Its value is 0.0483.

And the “area with substrate ENLYFQG” value?
Its value is 0.0859.

And the “area with substrate ENLYFQH” value?
The value was 0.0767.

What about the “area with substrate ENLYFQI” value of the same variant?
Its value is 0.0533.

And the “area with substrate ENLYFQK” value?
Its value is 0.0648.

What about the “area with substrate ENLYFQL” value of the same variant?
The value was 0.0618.

What about the “area with substrate ENLYFQM” value of the same variant?
The value was 0.0984.

What about the “area with substrate ENLYFQP” value of the same variant?
The value was 0.0456.

And the “area with substrate ENLYFQR” value?
The value was 0.0626.

And the “area with substrate ENLYFQS” value?
The value was 0.104.

And the “area with substrate ENLYFQV” value?
Its value is 0.0377.

What about the “area with substrate ENLYFQW” value of the same variant?
The value was 0.0532.

And the “area with substrate ENLYFQY” value?
Its value is 0.0706.

For MGESLFKGPRDYNPISSSICHLTNESDGHTTSLYGIGFGPFIITNKHLFRRNNGTLVVQSLHGVFKVKDTTTLQQHLVDGEDMIIIRMPKDFPPFPQKLKFREPQREERICLVTTNFQTKSMSSMVSDTSCTFPSGDGIFWKHWIQTKDGQCGSPLVSTRDGFIVGIHSASNFTNTNNYFTSVPKNFMELLTNQEAQQWVSGWRLNADSVLWGGHKVFMVKPEEPFQPVKEATQL [R81E], which “area with substrate ENLYFQA” value is on record?
Its value is 0.0752.

And the “area with substrate ENLYFQC” value?
Its value is 0.0579.

And the “area with substrate ENLYFQD” value?
Its value is 0.0683.

What about the “area with substrate ENLYFQH” value of the same variant?
The value was 0.0694.

What about the “area with substrate ENLYFQK” value of the same variant?
Its value is 0.0643.

And the “area with substrate ENLYFQL” value?
The value was 0.0495.

And the “area with substrate ENLYFQM” value?
Its value is 0.0625.

What about the “area with substrate ENLYFQP” value of the same variant?
The value was 0.0573.

And the “area with substrate ENLYFQQ” value?
Its value is 0.0512.

And the “area with substrate ENLYFQR” value?
Its value is 0.0553.

And the “area with substrate ENLYFQS” value?
The value was 0.0669.

What about the “area with substrate ENLYFQT” value of the same variant?
The value was 0.058.

And the “area with substrate ENLYFQW” value?
The value was 0.0599.

What does the source list for MGESLFKGPRDYNPISSSICHLTNESDGHTTSLYGIGFGPFIITNKHLFRRNNGTLVVQSLHGVFKVKDTTTLQQHLVDGRDMIIIRMPKDFPPFPQKLKFREPQREERICLVTTNFQTKSMSSMVSDTSCTFPSGDGIFWKHWIQTKDGQCGSPLVSTRDGFIVGIHSASNFTNTNNYFTSVPKNFMELLTNQEAQQWVSGWRLNADSVLWGGEKVFMVKPEEPFQPVKEATQL [H215E]?
area with substrate ENLYFQA: 0.0608; area with substrate ENLYFQC: 0.072; area with substrate ENLYFQD: 0.0716; area with substrate ENLYFQE: 0.0669; area with substrate ENLYFQG: 0.0631; area with substrate ENLYFQH: 0.0672; area with substrate ENLYFQI: 0.061; area with substrate ENLYFQK: 0.05; area with substrate ENLYFQL: 0.0577; area with substrate ENLYFQM: 0.0586; area with substrate ENLYFQP: 0.0582; area with substrate ENLYFQR: 0.0559; area with substrate ENLYFQS: 0.0674; area with substrate ENLYFQT: 0.0497; area with substrate ENLYFQW: 0.0385

Which results are given for MGESLFKGPRDYNPISSSICHLTNESDGHTTSLYGIGFGPFIITNKHLFRRNNGTLVVQSLHGVFKVKDTTTLQQHLVDGRDMIIIRMPKDFPPFPQKLKFREPQREERICLVTTNFQTKSMSSMVSDTSCTFPSGDGIFWKHWIQTKDGQCGSPLVSTRDGFIVGIHSASNFTNTNNYFTSVPKNFMELLTNQEAQQWVSGWRLNADSVLWGGHKVFMVKPEEPFQPVKEATRL [Q234R]?
area with substrate ENLYFQA: 0.0988; area with substrate ENLYFQC: 0.131; area with substrate ENLYFQF: 0.0855; area with substrate ENLYFQG: 0.0626; area with substrate ENLYFQH: 0.108; area with substrate ENLYFQL: 0.0714; area with substrate ENLYFQM: 0.096; area with substrate ENLYFQN: 0.076; area with substrate ENLYFQP: 0.0661; area with substrate ENLYFQS: 0.102; area with substrate ENLYFQT: 0.06; area with substrate ENLYFQY: 0.0738

With MGESLFKGPRDYNPISSSICHLTNESDGHTTSLYGIGFGPFIITNKHLFRRNNGTLVVQSLHGVFKVKDTTTLQQHLVDGRDMIIIRMPKDFPPFPQKLKFREPQREERICLVTTNFQTKSMSSMVSDTSCTFPSGDGIFWKHWIQTKDGQCGSPDVSTRDGFIVGIHSASNFTNTNNYFTSVPKNFMELLTNQEAQQWVSGWRLNADSVLWGGHKVFMVKPEEPFQPVKEATQL [L156D] as the variant, how does the “area with substrate ENLYFQA” value read?
The value was 0.0451.

What about the “area with substrate ENLYFQC” value of the same variant?
Its value is 0.0486.

And the “area with substrate ENLYFQE” value?
The value was 0.0521.

And the “area with substrate ENLYFQG” value?
Its value is 0.0626.

And the “area with substrate ENLYFQH” value?
The value was 0.0508.

And the “area with substrate ENLYFQI” value?
The value was 0.0413.

And the “area with substrate ENLYFQK” value?
Its value is 0.0473.

And the “area with substrate ENLYFQL” value?
Its value is 0.0528.

And the “area with substrate ENLYFQM” value?
Its value is 0.0502.

What about the “area with substrate ENLYFQN” value of the same variant?
Its value is 0.0558.

What about the “area with substrate ENLYFQQ” value of the same variant?
The value was 0.0595.

What about the “area with substrate ENLYFQS” value of the same variant?
Its value is 0.0548.

What about the “area with substrate ENLYFQT” value of the same variant?
Its value is 0.0428.

What about the “area with substrate ENLYFQV” value of the same variant?
Its value is 0.0614.

And the “area with substrate ENLYFQW” value?
Its value is 0.054.

What about the “area with substrate ENLYFQY” value of the same variant?
The value was 0.0468.

Which results are given for MGESLFKGPRDYNPISSSICHLTNESDGHTTSLYGIGFGPFIITNKHLFRRNNGTLVVQSLHGVFKVKDTTTLQQHLVDGRDMIIIRMPKDFPPFPQKLKFREPQREERICLVTTNFQTKSMSSMVSDTSCTFPSGDGIFWKHWIQTKDGQCGSPLVSTRDGFIVGIHSASNFTNTNNYFTSVPKNFMELLTNPEAQQWVSGWRLNADSVLWGGHKVFMVKPEEPFQPVKEATQL [Q194P]?
area with substrate ENLYFQA: 0.122; area with substrate ENLYFQC: 0.132; area with substrate ENLYFQF: 0.0693; area with substrate ENLYFQH: 0.102; area with substrate ENLYFQK: 0.0571; area with substrate ENLYFQL: 0.0554; area with substrate ENLYFQN: 0.0904; area with substrate ENLYFQP: 0.0745; area with substrate ENLYFQR: 0.0478; area with substrate ENLYFQS: 0.115; area with substrate ENLYFQY: 0.126
